In all, about 110,000 compounds were measured (“z-score”: median about -0.1, highest 2% from about 2 on). The list shows a part of the results. The source made the active and inactive calls.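 Rule for the calls: active = z-score in the third read window above 3 or below -3; inactive = the rest.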 Residues, ends and D or L forms follow the SMILES beside them. *: point of attachment. Boc = CC(C)(C)OC(=O)*

This test concerns the target Metabotropic glutamate receptor 8 (Rattus norvegicus) (UniProt P70579). Put plainly: rat mGluR8 modulators via GIRK flux, primary screen, cell-based, thallium flux, HTS (AID 488969). As to conditions: HEK293 rat mGluR8, GIRK (G protein-gated inwardly rectifying potassium channel) thallium flux, FluoZin2; at 10 µM; stronger effect = higher value; submaximal glutamate (EC20) added with thallium.
Sequence of UniProt P70579 (P70579 whole entry, looked up): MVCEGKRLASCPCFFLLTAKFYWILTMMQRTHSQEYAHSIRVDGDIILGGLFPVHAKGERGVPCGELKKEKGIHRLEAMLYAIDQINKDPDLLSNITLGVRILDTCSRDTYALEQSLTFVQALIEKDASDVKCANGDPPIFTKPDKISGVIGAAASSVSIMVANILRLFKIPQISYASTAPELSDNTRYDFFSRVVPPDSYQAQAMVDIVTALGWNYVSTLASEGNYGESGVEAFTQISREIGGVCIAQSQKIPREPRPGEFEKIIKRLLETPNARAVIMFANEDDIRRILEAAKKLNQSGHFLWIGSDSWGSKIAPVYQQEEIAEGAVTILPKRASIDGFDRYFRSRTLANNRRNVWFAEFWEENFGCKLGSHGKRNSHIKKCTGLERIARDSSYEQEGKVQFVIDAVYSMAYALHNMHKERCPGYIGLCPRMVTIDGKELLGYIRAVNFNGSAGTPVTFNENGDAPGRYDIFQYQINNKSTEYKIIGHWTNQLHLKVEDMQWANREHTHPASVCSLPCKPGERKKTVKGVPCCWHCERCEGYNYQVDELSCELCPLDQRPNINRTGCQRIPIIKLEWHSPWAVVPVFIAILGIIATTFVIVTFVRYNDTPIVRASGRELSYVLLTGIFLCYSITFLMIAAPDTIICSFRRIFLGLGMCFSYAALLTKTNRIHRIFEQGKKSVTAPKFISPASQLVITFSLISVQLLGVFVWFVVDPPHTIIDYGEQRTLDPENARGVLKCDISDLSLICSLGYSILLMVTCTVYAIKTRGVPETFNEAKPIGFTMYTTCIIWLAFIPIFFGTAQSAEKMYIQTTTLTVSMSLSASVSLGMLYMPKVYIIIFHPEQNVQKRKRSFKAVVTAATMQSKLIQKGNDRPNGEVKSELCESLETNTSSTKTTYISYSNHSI
Molecule `CC(C)Cc1nc2n[nH]c(N)c2c2c1CCCC2` showed a z-score of -0.155.
For the molecule `CC(C)(C)n1nnnc1C(c1cccs1)N(Cc1ccc(Cl)cc1)CC1CCCO1` (stereo not given), the z-score was -0.113.
Regarding `COc1cccc(-n2c(Cc3cc(=O)[nH]c(=O)[nH]3)nnc2SC(C)C)c1`, the z-score is -0.195.
On to `CCOC(=O)CC1ON(C)C(=O)N1c1ccc([N+](=O)[O-])cc1` (stereo not given), for which the z-score came out at 0.0464.
Consider `O=C(N/N=C/c1ccncc1)c1cc(Br)ccc1OCc1ccccc1`, for which the z-score amounted to 0.109.
In the case of `CCCc1cc(=O)[nH]c(SCC(=O)OCc2ccccc2)n1`, the z-score is -0.208.
Turning to `CCCCC(=O)Nc1cc(NC(=O)CC)ccc1Cl`, the z-score was -0.0794.
`CC(NC(=O)OC(C)(C)C)C(=O)N1CCCC1C(=O)NC(Cc1ccccc1)C(N)=O` (stereo not drawn) (Boc-Ala-Pro-Phe-NH2; configuration not given here): the z-score was found to be 0.392.
For `Cc1nc(-c2ccccc2)sc1C(N)=O`, the z-score was determined as 0.19.
`CCC(C)NC(=O)c1ccc(COc2ccccc2Cl)cc1` (stereo not given) showed a z-score of -0.049.
Regarding `N#C/C(=C\c1ccc(N2CCOCC2)c([N+](=O)[O-])c1)c1nc2ccccc2[nH]1`, the z-score is 2.63.
On to `Cc1ccccc1NC1=C(Cl)C(=O)OC1OC(C)C` (stereo not given), for which the z-score was -0.0282.
`Cc1cccc(Cn2c(SCC(=O)Nc3ccccc3)nc3c2c(=O)[nH]c(=O)n3C)c1` gave a z-score of -0.546.
For `CCN(CC)CCN(C(=O)Cn1nnc(-c2ccc(OC)c(OC)c2)n1)C(C(=O)NC1CCCC1)c1ccc(F)cc1` (stereo not given), the z-score is -0.225.
`Cc1ccc(N2CC(C(=O)Nc3cc(C)on3)CC2=O)cc1` (stereo not given) registered a z-score of -0.203.
Turning to `CCCc1cc(=O)n2[nH]c(Cc3ccccc3)nc2n1`, the z-score was -1.87.
The figure for `Cc1oc(-c2ccccc2Cl)nc1CSCC(=O)NC1CC1` is -0.779; for `CCc1cccc(CC)c1NC(=S)NCC(c1cccnc1)N1CCOCC1` (stereo not given) it is 0.00701; for `Cc1c(NC(=O)COC(=O)c2cc3c4ccccc4n(C)c3s2)c(=O)n(-c2ccccc2)n1C` it is -1.5.
Consider `CC(C)[C@H](Nc1ccc(S(=O)(=O)N2CCOCC2)cc1[N+](=O)[O-])C(=O)OCC(N)=O`, for which the z-score is -0.189.
In turn, `Nc1nc(Nc2ccc(Cl)cc2)nc2ccccc12` displayed a z-score of 0.397.
On to `O=[N+]([O-])c1cccc(CN(CCO)Cc2ccccc2)c1`, for which the z-score is -0.194.
`Fc1ccc(-c2cn3cc(C(F)(F)F)cc(Cl)c3n2)cc1` came in with a z-score of -0.424.
Consider `Oc1oc(-c2cccc3ccccc23)nc1/C=N/c1nccs1`, for which the z-score was active: 7.77.
`COc1ccc(-c2noc(CSc3nc4ccccc4c(=O)n3-c3ccc(C)cc3)n2)cc1` displayed a z-score of 0.0372.
Take `CCOC(=O)N1N=C(c2ccc(C)cc2)CC1(O)C(F)(F)F` (stereo not given): the z-score is -0.162.
The figure for `NC(=O)c1c(NC(=O)CSc2nnc(-c3ccco3)n2N)sc2c1CCCC2` is -0.428; for `COc1ccc(Cl)cc1S(=O)(=O)Nc1cccc(C(=O)O)c1` it is 0.587; for `Cn1c(NC(=O)c2cc(Br)ccc2Cl)cc(=O)n(C)c1=O` it is -0.253.
Then `CCNS(=O)(=O)c1ccc(NC(=O)Cc2ccc(F)cc2)cc1`, with 0.35.
Take `Nc1nc(SCc2ccccc2)[nH]c(=O)c1-c1ccccc1`: the z-score is -0.741.
On to `N#CCC(=O)Nc1ncn(Cc2ccccc2Cl)n1`, for which the z-score is -0.181.
Molecule `CC(C)(C)c1ccc(C(=O)Nc2ccc(NC(=O)c3ccco3)cc2)cc1` came in with a z-score of 0.327.
`CN(C)c1ccc(NC(=O)c2ccc([N+](=O)[O-])cc2Cl)cc1` showed a z-score of -0.282.
The figure for `COc1ccc(NC(=O)Cc2ccc(C)cc2)c([N+](=O)[O-])c1` is 0.104; for `O=c1cc(-c2ccc([N+](=O)[O-])cc2)nc2cc(-c3ccc(Cl)cc3)[nH]n12` it is 0.0459.
`CCN(CC)c1ccc(NC(=O)c2ccc(Cl)nc2)cc1`: the z-score was -0.204.
`Cc1ccc(C)c(NC(=O)CCCCCCCCCCC2COCCO2)c1` (stereo not given) displayed a z-score of -0.192.
As to `CCOc1ccc(CCNC(=O)COC(=O)c2cccnc2OCC)cc1OCC`, the z-score is -0.206.
Turning to `COc1ccc(OC(=O)c2ccc3nsnc3c2)cc1`, the z-score is -0.0714.
Consider `Cc1cccc2cc3c(N)c(C(=O)N4CCc5ccccc54)sc3nc12`, for which the z-score is -0.081.
Take `O=C(Nc1ccc2nc(-c3cccnc3)[nH]c2c1)C12CC3CC(CC(C3)C1)C2`: the z-score is -0.105.
With `O=C(O)CN1C(=O)COc2cc(S(=O)(=O)N3CCCC3)ccc21`, the z-score was -0.317.
In the case of `COc1ccc(-c2nnc(SCC(=O)N3c4ccccc4Sc4ccccc43)o2)cc1`, the z-score was -1.63.
For `O=C(COC(=O)c1ccc([N+](=O)[O-])s1)Nc1ncc(C(F)(F)F)cc1Cl`, the z-score was -0.442.
Take `CN(C)c1ccc(C2=NOC(CN3C(=O)c4ccccc4S3(=O)=O)C2)cc1` (stereo not given): the z-score was 0.443.
Molecule `Cc1c(Cl)cccc1NC(=S)N1CCN(Cc2ccccc2)CC1` came in with a z-score of -0.495.
Molecule `Cc1ccc(C(=O)N/C(N)=N/c2nc3ccccc3o2)cc1` had a z-score of -0.204.
Consider `COc1ccc(-c2csc(N3C(=N)SCC3=O)n2)cc1`, for which the z-score is -0.116.
Molecule `CC(NC(=O)/C(=C/c1cccc([N+](=O)[O-])c1)NC(=O)c1ccco1)C(=O)O` (stereo not given) came in with a z-score of -0.753.
Molecule `COc1ccc(OC)c(C2c3c(oc4ccccc4c3=O)C(=O)N2CCCN(C)C)c1` (stereo not given) registered a z-score of -0.648.
Molecule `COC(=O)c1sccc1-c1ccc(/C=N/OC(=O)c2ccccc2)o1` registered a z-score of -0.169.
On to `CC(C)NC(=O)c1ccccc1NC(=O)c1ccccc1N(C)S(C)(=O)=O`, for which the z-score is 0.524.
`O=C(NC1C=CS(=O)(=O)C1)c1sc2ccccc2c1Cl` (stereo not given) yielded a z-score of -0.491.
With `CSc1nc(NC(C)(C)C)nc(Oc2ccc(=O)[nH]n2)n1`, the z-score is -0.539.
Take `COc1ccccc1Nc1nc(N)nc(-c2oc3ccccc3c2C)n1`: the z-score is -0.532.
The figure for `O=C(CCCC(=O)OCC(=O)c1ccc(F)cc1)Nc1cc(C(F)(F)F)ccc1Cl` is -0.289; for `CCN(CC)C(=O)C(=O)Nc1cc(C(F)(F)F)ccc1Cl` it is -0.269; for `Cc1nn(Cc2ccc(Cl)cc2)c(Cl)c1/C=N/NC(=O)c1cccnc1` it is -0.279.
In the case of `Cc1[nH]nc2c1C1(CCOC1C)C(C#N)=C(N)O2` (stereo not given), the z-score is -0.159.
The figure for `COc1cccc(NC2=Nc3cccc4cccc2c34)c1` is -0.0945.
In the case of `CC1C(=O)CC(c2ccccc2)N(C)C1c1ccccc1` (stereo not given), the z-score is -0.0361.
In turn, `Nc1ccccc1SCc1cc([N+](=O)[O-])cc2c1OCOC2` showed a z-score of -0.345.
Regarding `O=C(Nc1nc2c(s1)CCCC2)c1nn(Cc2ccccc2)c(=O)c2ccccc12`, the z-score is -0.449.
Take `NNC(=O)c1cccc(COc2ccccc2Br)c1`: the z-score is -0.116.
On to `COc1cc(C=C(c2nc3ccccc3s2)c2nc3ccccc3s2)cc(OC)c1O`, for which the z-score is -0.0321.
The figure for `COCCNC(=O)CSc1nc2nc(C)cc(C)n2n1` is 0.333; for `Fc1cccc(F)c1/C=C/c1ccc2ccccc2n1` it is 0.134; for `COc1ccc(OCC(=O)O/N=C(\N)Cc2cccs2)cc1` it is -0.241.
Molecule `COC(=O)C1=C(C)NC(=O)C1(Nc1nccs1)C(F)(F)F` (stereo not given) displayed a z-score of 0.151.
Consider `CC(=O)N1N=C(c2ccncc2)OC12CCCC2`, for which the z-score was found to be 0.267.
`CCC(CC)NC(=O)c1n[nH]c(=O)c2ccccc12` displayed a z-score of 0.141.
`CC1(C(=O)CSc2nc3ccccc3[nH]2)CCC(=O)O1` (stereo not given) came in with a z-score of 0.199.
`Cc1ccc2nc(-c3ccccc3)cc(C(=O)N3CCc4ccccc4C3)c2c1` returned a z-score of -0.613.
`Cc1cc(Br)c2[nH]c3c(c2c1)CCCC3=O` showed a z-score of 1.57.
Turning to `COc1ccc(C=C(c2ccc(OC)cc2)c2ccc(OC)cc2)cc1`, the z-score is -0.157.
Molecule `Cc1ccc(N2C(=O)c3cccc(Oc4ccc(Cl)cc4)c3C2=O)c(C)c1` gave a z-score of -0.0489.
The molecule `Cc1ccc(NC(=O)N2CCc3ccccc3C2)cc1` came in with a z-score of -0.106.
Consider `CC(=O)N(c1ccc2oc(=O)sc2c1)S(=O)(=O)c1cccs1`, for which the z-score was -1.33.
Turning to `Cc1cc(C)c(S(=O)(=O)c2c(C)cccc2C)c(OCC(C)C)n1`, the z-score is -0.113.
Take `C=CCc1c(C)nc(C)nc1N/N=C/c1ccc(N(C)C)cc1`: the z-score is -0.44.
In turn, `Cc1ccc(N=N/C(=C\O)C(=O)c2ccncc2)cc1` displayed a z-score of 0.149.
On to `CCOC(=O)c1sc(-n2[nH]c(C)cc2=O)nc1C`, for which the z-score was 0.908.
The figure for `Cc1ccc(S(=O)(=O)N(CC(=O)N2CCOCC2)C2CCCCC2)cc1` is -0.206.
Turning to `COc1ccc(Nc2nc(NCc3ccco3)nc(N/N=C/c3ccccc3Cl)n2)cc1`, the z-score is -2.11.
Then `O=c1c2c3c(sc2nc(NCCO)n1Cc1ccco1)CCCCC3`, with 0.278; and `Cc1cc(C)nc(NC(=O)c2ccc(Cl)c(Cl)c2)n1`, with 0.159.
The figure for `NC(=O)C1CCN(C(=O)c2ccco2)CC1` is 0.148; for `CCCN1C(=O)C(O)(CC(=O)c2ccc3c(c2)OCCO3)c2ccccc21` (stereo not given) it is -0.33; for `CCC(=O)Nc1cccc(NC(=S)NC(=O)c2ccccc2)c1` it is -0.455.
Then `CCCCCn1c(CN(C)Cc2ccccc2)nc2c1c(=O)n(C)c(=O)n2C`, with 0.218; and `CC(C)N(Cc1ccccc1)S(=O)(=O)N(C)C`, with -0.0764.
`CCOc1ccc(NC(=S)NN2CCN(C)CC2)cc1` returned a z-score of -0.0721.
Regarding `COc1ccccc1C1CC(c2c(-c3ccccc3)c3cc(Cl)ccc3[nH]c2=O)=NN1S(C)(=O)=O` (stereo not given), the z-score came to 0.286.
On to `C=CCN(C(=O)c1ccccc1)c1ccc(OC)cc1`, for which the z-score is -0.282.
Then `CCC1(C)Cc2ccccc2-c2nc(-c3ccccc3)oc(=O)c21` (stereo not given), with -0.0643; and `Cc1cnc(C(=O)Nc2ccc(N3CCN(C(=O)OC(C)(C)C)CC3)cc2)cn1`, with 0.415; and `CC(=O)Nc1ccccc1C(=O)C(=O)Nc1cccc(C(=O)NCc2ccccc2)c1`, with 1.12.
`Cc1ccc(S(=O)(=O)N2CCN(CC(=O)N(CC(C)C)c3c(N)n(CC(C)C)c(=O)[nH]c3=O)CC2)c(C)c1`: the z-score is -0.207.
Take `CC(NC(=O)/C=C/c1ccco1)c1nc2ccccc2n1Cc1cccc(Cl)c1` (stereo not given): the z-score was -0.452.
As to `Cc1cccc(-c2nc(CS(=O)CC(=O)NC3CCCC3)c(C)o2)c1` (stereo not given), the z-score is -0.388.
The molecule `CC(=O)Nc1ccc(OCC(=O)NCCc2ccc(Cl)cc2)cc1` returned a z-score of -0.248.
With `CCCCOC(=O)CCc1c(C)[nH]c(=O)c(C#N)c1C`, the z-score was 0.328.
Molecule `Nc1nc2ccccc2nc1N1CCCC1` registered a z-score of -0.139.
`Cc1sc(NC(=O)c2ccco2)c(C(=O)c2ccc(Cl)cc2)c1C`: the z-score is -0.135.
Then `CCOc1ccccc1C(=O)N(C)Cc1cc2ccccc2[nH]c1=O`, with -0.136; and `O=C(COc1ccccc1)NCC(=O)N/N=C/c1cc(Br)ccc1OCc1ccccc1`, with -0.0662.
In the case of `c1ccc(C2OCC3(CO2)COC(c2ccccc2)OC3)cc1` (stereo not given), the z-score is -0.213.
Then `Cc1ccc(-n2nc(-c3cccs3)cc2C(=O)NCC2CCCO2)c(C)c1` (stereo not given), with active: -3.26.
The figure for `Cc1cc(C(=O)NC(C)C2CCCO2)cs1` (stereo not given) is 0.307.
